# The other results are listed elsewhere or left out. Rule as the data show it: active = 3.2 or more and inactive = the rest. The signal is at background level for most entries.
# Target: SHP2 C-SH2 domain E139D
# Assay: enrichment score (SH2-bound / input frequency) (ratio); bacterial display of known human phosphotyrosine sites (pTyr-Var adds point mutants) read by sequencing; higher = stronger binding; tyrosines were phosphorylated by kinases first
# Details: peptide library: pTyr-Var
# 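Also: displayed peptides selected on beads carrying the immobilized SH2 domain, with library peptides lacking any tyrosine serving as negative controls.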
row,Binder,enrichment score
1,IKSSIYDNRKE [ARAP2_Y380],inactive: 0.743
2,IKSSIYDNRNE [ARAP2_Y380_K384N],inactive: 0.551
3,KTTILYKLKLG [ARF1_Y35],inactive: 2.4
4,KTTILHKLKLG [ARF1_Y35_Y35H],inactive: 2.76
5,KNEVLYDGENH [ARFGEF1_Y314],inactive: 0.525
6,KNEVLYDEENH [ARFGEF1_Y314_G316E],inactive: 0.547
7,KLMTEYKKRKQ [ARFGEF3_Y2029],inactive: 1.48
8,KLMTEYKRRKQ [ARFGEF3_Y2029_K2031R],inactive: 0.241
9,DLFRLYVCVKE [ARID1B_Y1091],inactive: 0.642
10,DMGAQYAAASP [ARID1B_Y483],inactive: 0.511
11,DMGAQYAAASR [ARID1B_Y483_P488R],inactive: 0.455
12,IHFAIYLLKYS [ARMC9_Y107],inactive: 1.6
13,HEVHIYEKSGA [ARPC1B_Y35],inactive: 1.04
14,HEVHIYENSGA [ARPC1B_Y35_K37N],inactive: 3.08
15,QGFDTYFGYLL [ARSB_Y165_R160Q],inactive: 1.07
16,QGFDTYFGFLL [ARSB_Y165_R160Q_YF],inactive: 0.652
17,RGFDTYFGFLL [ARSB_Y165_YF],inactive: 1.15
18,LGPDGYSTVDQ [ARVCF_Y901_R906Q],inactive: 0.45
19,PSGPAYRGAVP [ASAH1_Y43_T42A],inactive: 0.57

# Target: SHP2 C-SH2 domain wild-type
# Assay: as above
# Details: peptide library: pTyr-Var
row,Binder,enrichment score
1,IKSSIYDNRKE [ARAP2_Y380],inactive: 0.863
2,IKSSIYDNRNE [ARAP2_Y380_K384N],inactive: 0.513
3,KTTILYKLKLG [ARF1_Y35],inactive: 2.16
4,KTTILHKLKLG [ARF1_Y35_Y35H],inactive: 2.24
5,KNEVLYDGENH [ARFGEF1_Y314],inactive: 0.448
6,KNEVLYDEENH [ARFGEF1_Y314_G316E],inactive: 0.654
7,KLMTEYKKRKQ [ARFGEF3_Y2029],inactive: 1.11
8,KLMTEYKRRKQ [ARFGEF3_Y2029_K2031R],inactive: 0.18
9,DLFRLYVCVKE [ARID1B_Y1091],inactive: 0.978
10,DMGAQYAAASP [ARID1B_Y483],inactive: 0.483
11,DMGAQYAAASR [ARID1B_Y483_P488R],inactive: 0.462
12,IHFAIYLLKYS [ARMC9_Y107],inactive: 1.73
13,HEVHIYEKSGA [ARPC1B_Y35],inactive: 1.13
14,HEVHIYENSGA [ARPC1B_Y35_K37N],active: 3.65
15,QGFDTYFGYLL [ARSB_Y165_R160Q],inactive: 0.915
16,QGFDTYFGFLL [ARSB_Y165_R160Q_YF],inactive: 0.746
17,RGFDTYFGFLL [ARSB_Y165_YF],inactive: 1.46
18,LGPDGYSTVDQ [ARVCF_Y901_R906Q],inactive: 0.676
19,PSGPAYRGAVP [ASAH1_Y43_T42A],inactive: 0.509

# Target: SHP2 N-SH2 domain L43F
# Assay: as above
# Details: peptide library: pTyr-Var
row,Binder,enrichment score
1,IKSSIYDNRKE [ARAP2_Y380],inactive: 0.794
2,IKSSIYDNRNE [ARAP2_Y380_K384N],inactive: 0.743
3,KTTILYKLKLG [ARF1_Y35],inactive: 2.14
4,KTTILHKLKLG [ARF1_Y35_Y35H],inactive: 2.89
5,KNEVLYDGENH [ARFGEF1_Y314],inactive: 0.505
6,KNEVLYDEENH [ARFGEF1_Y314_G316E],inactive: 0.676
7,KLMTEYKKRKQ [ARFGEF3_Y2029],inactive: 1.18
8,KLMTEYKRRKQ [ARFGEF3_Y2029_K2031R],inactive: 0.313
9,DLFRLYVCVKE [ARID1B_Y1091],inactive: 0.817
10,DMGAQYAAASP [ARID1B_Y483],inactive: 0.469
11,DMGAQYAAASR [ARID1B_Y483_P488R],inactive: 0.476
12,IHFAIYLLKYS [ARMC9_Y107],inactive: 1.44
13,HEVHIYEKSGA [ARPC1B_Y35],inactive: 0.91
14,HEVHIYENSGA [ARPC1B_Y35_K37N],active: 3.49
15,QGFDTYFGYLL [ARSB_Y165_R160Q],inactive: 0.771
16,QGFDTYFGFLL [ARSB_Y165_R160Q_YF],inactive: 0.767
17,RGFDTYFGFLL [ARSB_Y165_YF],inactive: 1.05
18,LGPDGYSTVDQ [ARVCF_Y901_R906Q],inactive: 0.922
19,PSGPAYRGAVP [ASAH1_Y43_T42A],inactive: 0.553

# Target: SHP2 N-SH2 domain T42A
# Assay: as above
# Details: peptide library: pTyr-Var
row,Binder,enrichment score
1,IKSSIYDNRKE [ARAP2_Y380],inactive: 0.957
2,IKSSIYDNRNE [ARAP2_Y380_K384N],inactive: 0.551
3,KTTILYKLKLG [ARF1_Y35],inactive: 1.98
4,KTTILHKLKLG [ARF1_Y35_Y35H],inactive: 1.92
5,KNEVLYDGENH [ARFGEF1_Y314],inactive: 0.406
6,KNEVLYDEENH [ARFGEF1_Y314_G316E],inactive: 0.652
7,KLMTEYKKRKQ [ARFGEF3_Y2029],inactive: 1.07
8,KLMTEYKRRKQ [ARFGEF3_Y2029_K2031R],inactive: 0.193
9,DLFRLYVCVKE [ARID1B_Y1091],inactive: 0.632
10,DMGAQYAAASP [ARID1B_Y483],inactive: 0.476
11,DMGAQYAAASR [ARID1B_Y483_P488R],inactive: 0.362
12,IHFAIYLLKYS [ARMC9_Y107],inactive: 1.32
13,HEVHIYEKSGA [ARPC1B_Y35],inactive: 0.652
14,HEVHIYENSGA [ARPC1B_Y35_K37N],active: 3.25
15,QGFDTYFGYLL [ARSB_Y165_R160Q],inactive: 0.876
16,QGFDTYFGFLL [ARSB_Y165_R160Q_YF],inactive: 0.594
17,RGFDTYFGFLL [ARSB_Y165_YF],inactive: 1.13
18,LGPDGYSTVDQ [ARVCF_Y901_R906Q],inactive: 1.68
19,PSGPAYRGAVP [ASAH1_Y43_T42A],inactive: 0.467

# Target: SHP2 N-SH2 domain T52S
# Assay: as above
# Details: peptide library: pTyr-Var
row,Binder,enrichment score
1,IKSSIYDNRKE [ARAP2_Y380],inactive: 0.629
2,IKSSIYDNRNE [ARAP2_Y380_K384N],inactive: 0.713
3,KTTILYKLKLG [ARF1_Y35],inactive: 2.41
4,KTTILHKLKLG [ARF1_Y35_Y35H],inactive: 2.6
5,KNEVLYDGENH [ARFGEF1_Y314],inactive: 0.476
6,KNEVLYDEENH [ARFGEF1_Y314_G316E],inactive: 0.632
7,KLMTEYKKRKQ [ARFGEF3_Y2029],inactive: 1.32
8,KLMTEYKRRKQ [ARFGEF3_Y2029_K2031R],inactive: 0.316
9,DLFRLYVCVKE [ARID1B_Y1091],inactive: 0.68
10,DMGAQYAAASP [ARID1B_Y483],inactive: 0.551
11,DMGAQYAAASR [ARID1B_Y483_P488R],inactive: 0.485
12,IHFAIYLLKYS [ARMC9_Y107],inactive: 1.86
13,HEVHIYEKSGA [ARPC1B_Y35],inactive: 0.909
14,HEVHIYENSGA [ARPC1B_Y35_K37N],active: 3.51
15,QGFDTYFGYLL [ARSB_Y165_R160Q],inactive: 0.715
16,QGFDTYFGFLL [ARSB_Y165_R160Q_YF],inactive: 0.716
17,RGFDTYFGFLL [ARSB_Y165_YF],inactive: 1.02
18,LGPDGYSTVDQ [ARVCF_Y901_R906Q],inactive: 0.821
19,PSGPAYRGAVP [ASAH1_Y43_T42A],inactive: 0.686

# Target: SHP2 N-SH2 domain wild-type
# Assay: as above
# Details: peptide library: pTyr-Var
row,Binder,enrichment score
1,IKSSIYDNRKE [ARAP2_Y380],inactive: 0.73
2,IKSSIYDNRNE [ARAP2_Y380_K384N],inactive: 0.778
3,KTTILYKLKLG [ARF1_Y35],inactive: 2.13
4,KTTILHKLKLG [ARF1_Y35_Y35H],inactive: 2.26
5,KNEVLYDGENH [ARFGEF1_Y314],inactive: 0.468
6,KNEVLYDEENH [ARFGEF1_Y314_G316E],inactive: 0.842
7,KLMTEYKKRKQ [ARFGEF3_Y2029],inactive: 0.943
8,KLMTEYKRRKQ [ARFGEF3_Y2029_K2031R],inactive: 0.17
9,DLFRLYVCVKE [ARID1B_Y1091],inactive: 1.19
10,DMGAQYAAASP [ARID1B_Y483],inactive: 0.627
11,DMGAQYAAASR [ARID1B_Y483_P488R],inactive: 0.505
12,IHFAIYLLKYS [ARMC9_Y107],inactive: 1.57
13,HEVHIYEKSGA [ARPC1B_Y35],inactive: 1.24
14,HEVHIYENSGA [ARPC1B_Y35_K37N],inactive: 2.9
15,QGFDTYFGYLL [ARSB_Y165_R160Q],inactive: 0.909
16,QGFDTYFGFLL [ARSB_Y165_R160Q_YF],inactive: 0.877
17,RGFDTYFGFLL [ARSB_Y165_YF],inactive: 1.2
18,LGPDGYSTVDQ [ARVCF_Y901_R906Q],inactive: 0.57
19,PSGPAYRGAVP [ASAH1_Y43_T42A],inactive: 0.636

# From the supplement of paper PMC10369915
